In PubChem BioAssay AID904 (National Center for Advancing Translational Sciences (NCATS), 2007):
About 530 (0.96%) of roughly 55,000 compounds were called active. This list was built around the results that the source calls inconclusive (neither active nor inactive); the mix of calls is not that of the screen. Calls follow the shape of the dose curve; as a rule, active = well fitted cell-killing curve with a large enough effect; inconclusive = small, poorly fitted or top-dose-only effect; inactive = no such curve, though single readings can be large or run the other way. Potencies beside an inconclusive call are fits to weak or partial responses and may not hold up.

experiment: qHTS Screen for Compounds that Selectively Target Cancer Cells with p53 Mutations: Cytotoxicity of p53 Null Cells at the Nonpermissive Temperature; conditions: H1299 p53-null (neo) cells, 39C, ATPlite viability, 24 h; series mostly up to 46.1 µM; also: nearly all actives have a fitted effect of over 50% in size
Outline: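 Following overnight plating at 37C (600 cells/well), H1299-neo or H1299-p53A138V cells are dosed up to 46 uM. Incubation lasts 24 hr at 39C before ATP detection.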
Potency is read from the fitted curve at half-maximal effect; tags tell the direction and shape of the fitted curve.

SMILES | Potency
COc1ccc(-c2nc3ccccc3s2)cc1NC(=O)COc1ccc(C)cc1 | inconclusive: 31.6 µM [cytotoxic, single point]
Cc1nc2ccccc2n1CCCOc1ccccc1 | inconclusive: 12.6 µM [cytotoxic, single point]
Cc1cc(NC(=O)Nc2csc3c2CCCC3)ccc1Br | inconclusive: 6.31 µM [cytotoxic, single point]
COc1ccc(N2CCN(C(=O)c3ccc4c(c3)CCN4S(C)(=O)=O)CC2)cc1 | inconclusive: 0.005 µM [cytotoxic, full curve, poor fit]
CC(C)c1ccc(Nc2c(-c3ccccc3O)nc3cnccn23)cc1 | active: 25.1 µM
Cc1ccc(-n2c(SCC(=O)Nc3cccc(Cl)c3)nc3n[nH]c(C)c3c2=N)cc1 | inconclusive: 17.8 µM [cytotoxic, partial curve]
COc1ccc(-c2cc(C(=O)Oc3ccc(C)c(C)c3)c3ccccc3n2)cc1 | inactive
CCc1ccc(NC(=O)CSc2nc(=O)n(Cc3ccco3)c3c2CCC3)cc1 | inactive
CC1=C(C(=O)Nc2ccccc2C)C(c2ccccn2)n2nc(SCc3ccccc3F)nc2N1 (stereo not drawn) | inconclusive: 5.01 µM [cytotoxic, partial curve]
CCOc1cc(-c2nc(-c3ccc(-c4ccc(OC)cc4)nc3OC)no2)cc(OCC)c1OCC | inconclusive: 0.199 µM [cytotoxic, full curve]
COc1ccc(-n2c(=O)c3ccc(C(=O)NCc4ccc(C)cc4)cc3n(CC(=O)Nc3ccc(C)cc3)c2=O)cc1 | inconclusive: 7.94 µM [cytotoxic, partial curve]
COc1cc(-c2nc3ccc(C)cn3c2Nc2ccc(Cl)cc2)ccc1O | active: 20 µM
Cn1c(=O)n(CCc2ccccc2)c(=O)c2c1nc1n2CCN1c1ccc(Cl)cc1 | inconclusive: 22.4 µM [cytotoxic, single point]
Clc1ccc(CSc2nc3ncccc3[nH]2)cc1 | inconclusive: 12.6 µM [cytotoxic, partial curve]
Cc1cc(C)cc(N2CCn3c2nc2c3c(=O)n(CCc3ccccc3)c(=O)n2C)c1 | inconclusive: 12.6 µM [cytotoxic, partial curve, poor fit]
COc1cccc(C(=O)n2nc(-c3ccco3)nc2NCc2cccs2)c1 | inconclusive: 0.891 µM [cytotoxic, full curve, poor fit]
Cc1ccc2c(CC(=O)Nc3ccccc3C(F)(F)F)coc2c1C | inconclusive: 0.126 µM [cytotoxic, full curve, poor fit]
COc1cc(NC(=O)CCS(=O)(=O)c2nc(-c3cccs3)cc(C(F)(F)F)n2)cc(OC)c1OC | inactive
COC(=O)CNC(=O)C(Cc1ccccc1)NS(=O)(=O)c1ccc2c(c1)c(=O)n(C)c(=O)n2C (stereo not drawn) | inconclusive: 20 µM [cytotoxic, single point]
Cc1cccc(C)c1Nc1c(-c2ccc(Cl)s2)nc2ncccn12 | inconclusive: 12.6 µM [cytotoxic, partial curve, poor fit]
COc1ccc(-c2noc(-c3ccc(NC4CCCC4)c([N+](=O)[O-])c3)n2)cc1 | inconclusive: 11.2 µM [cytotoxic, single point]
COc1ccc(-c2nn(C)c3sc(C(=O)Nc4cccc(F)c4)cc23)cc1OC | inactive
COCCn1c(SCC(=O)c2cc(C)ccc2C)nc2cc(C(=O)NC3CCCC3)ccc2c1=O | inactive

SMILES | Potency
Cn1nnnc1SCCCNCc1cccc(OCc2ccc(Cl)cc2)c1 | inconclusive: 12.6 µM [cytotoxic, single point]
CCOC(=O)C1CCN(C(c2ccccc2OC)c2c(O)cc(C)n(CCOC)c2=O)CC1 (stereo not drawn) | inconclusive: 0.0316 µM [cytotoxic, full curve, poor fit]
Cc1ccc(C(=O)Nc2ccc(Cl)c(-c3nc4ncccc4o3)c2)c(C)c1 | inconclusive: 1.26 µM [cytotoxic, full curve, poor fit]
Cc1c(Cl)ccc2sc(N3CCN(C(=O)c4ccco4)CC3)nc12 | inactive
Cc1ccc(NC(=O)/C=C/c2ccccc2)c(Br)c1 | inactive
CCc1nnc(NC(=O)c2cc(=O)c3cc(C)c(C)cc3o2)s1 | inconclusive: 22.4 µM [cytotoxic, single point]
CCn1c(C(=O)NCc2cccc(Br)c2)cc2oc3ccccc3c21 | inconclusive: 15.8 µM [cytotoxic, single point]
CCc1ccc(-c2nc3ccc(Br)cc3c(C(=O)O)c2C)s1 | inconclusive: 20 µM [cytotoxic, single point]
Cc1ccccc1CNC(=O)C1CCN(c2nnc(C)c3c(C)n(-c4ccccc4)nc23)CC1 | inconclusive: 20 µM [cytotoxic, single point]
COc1ccc(NC(=O)CSc2oc(-c3cccs3)nc2S(=O)(=O)c2ccc(Br)cc2)c(OC)c1 | inconclusive: 0.02 µM [cytotoxic, full curve, poor fit]
CSc1cccc(-c2nnc(NC(=O)c3ccc4c(c3)OCCO4)o2)c1 | inconclusive: 31.6 µM [cytotoxic, single point]
CCc1ccc(NC(=O)c2cc3sc(Cl)cc3n2C)cc1 | inconclusive: 14.1 µM [cytotoxic, single point]
Cc1ccc(CNC(=O)Cn2ccn(-c3ccc(C)c(C)c3)c(=O)c2=O)cc1 | inconclusive: 31.6 µM [cytotoxic, single point]
Cc1cc(C)c2oc(-c3cccc(NC(=O)c4ccco4)c3)nc2c1 | inconclusive: 14.1 µM [cytotoxic, single point]
O=C(CCn1cnc2ccccc2c1=O)NCc1ccccc1 | inactive
CC(C)c1ccc(NC(=O)C2(C)Cc3ccccc3C(=O)O2)cc1 (stereo not drawn) | inactive
COc1ccc(Nc2cc(C(=O)NCc3ccccc3)c3ccccc3n2)c(OC)c1 | inconclusive: 12.6 µM [cytotoxic, single point]
COC(=O)c1cccc(Nc2nn3c(=O)c4cc5c(cc4nc3s2)OCO5)c1 | inconclusive: 0.0501 µM [cytotoxic, full curve, poor fit]
COc1ccc(-n2ncc3c(N4CCCCC4)ncnc32)cc1 | active: 3.98 µM
CCc1ccc(C2=C(C)C(N3CCC(C(=O)Nc4ccc(F)cc4)CC3)=NS2(=O)=O)cc1 | inactive
CCN(C(=O)CSc1nc(-c2ccccc2)no1)c1cccc(C)c1 | inactive
CCOCC(=O)Nc1ccc(-c2cn3c(C)csc3n2)cc1 | inconclusive: 20 µM [cytotoxic, partial curve, poor fit]
CCCCOc1ccc(C(=O)NCCS(=O)(=O)N2CCN(c3ccccc3OC)CC2)cc1 | inconclusive: 0.1 µM [cytotoxic, full curve, poor fit]

SMILES | Potency
COc1cccc(NC(=O)CSc2nnc3[nH]c(=O)cc(-c4ccccc4)n23)c1 | inconclusive: 0.891 µM [cytotoxic, full curve, poor fit]
CC(=O)Nc1ccc(C)cc1-c1nc2ccccc2n(Cc2cccc(Br)c2)c1=O | inactive
COc1ccc(OCc2nc(-c3ccc(OC)c(OC)c3)no2)cc1 | inactive
COc1cc(O)ccc1-c1nc2ccc(Br)cn2c1Nc1ccccc1C | active: 20 µM
Cc1cccn2c(=O)c3cc(C(=O)NC(C)(C)C)n(C)c3nc12 | inconclusive: 3.98 µM [cytotoxic, partial curve]
O=S(=O)(Nc1ccc(Br)cc1)c1ccc2nc(-c3ccccc3)[nH]c2c1 | inconclusive: 35.5 µM [cytotoxic, single point]
CC(=O)c1ccc(NC(=O)c2ccc(CN3C(=O)CCn4nc(C)cc43)cc2)cc1 | inconclusive: 5.01 µM [cytotoxic, full curve]
Oc1ccc(Nc2nc(-c3ccc(Cl)cc3)nc3ccccc23)cc1 | active: 15.8 µM
CCOCCCn1c(=N)c(C(=O)NC2CCCC2)cc2c(=O)n3cccc(C)c3nc21 | inactive
CCOC(=O)c1cccc(Nc2cc(C)nc(C)n2)c1 | inconclusive: 12.6 µM [cytotoxic, partial curve]
CC12CN3CC(C)(CN(C1)C3c1ccc(OCc3ccccc3)cc1)C2=O (stereo not drawn) | inconclusive: 31.6 µM [cytotoxic, single point]
O=C(CSc1nc2c(oc3ccccc32)c(=O)[nH]1)Nc1cccc(Cl)c1 | active: 10 µM
CN(C)c1cccc(C(=O)Nc2ccc(-c3nc4ccccc4s3)cc2)c1 | inconclusive: 31.6 µM [cytotoxic, single point]
COC(=O)c1c(SCC(=O)Nc2ccccc2OC)[nH]c2ccccc2c1=O | active: 7.94 µM
Cc1ccc(-n2ncc3c(N(CCO)Cc4ccccc4)ncnc32)cc1 | inactive
Cc1ccc(NC(=O)CCSc2nc(-c3ccc4c(c3)OCO4)cc(C(F)(F)F)n2)cc1 | inconclusive: 0.0447 µM [cytotoxic, full curve]
CN(Cc1ccccc1)C(=O)c1cc2c(s1)-c1ccc(Cl)cc1SC2 | active: 2 µM
Cc1ccccc1CNC(=O)C1CCCN(c2nnc(-n3c(C)ccc3C)s2)C1 (stereo not drawn) | inactive
CCc1c(C)nc2nncn2c1Nc1cccc(C)c1 | inconclusive: 31.6 µM [cytotoxic, single point]
COc1ccccc1CNC(=O)CCCn1c(=O)c2cccn2c2ccccc21 | inactive
O=C(NCCN1CCCCC1)c1ccc(Cn2c(SCc3ccc(F)cc3)nc3cccnc32)cc1 | inconclusive: 12.6 µM [cytotoxic, partial curve]
CC(=O)Nc1ccc(S(=O)(=O)Nc2nc3n(n2)C(c2ccccc2)C=C(c2ccc(Cl)cc2)N3)cc1 (stereo not drawn) | inactive
